# Results: ChEMBL document CHEMBL4888484, “Replenishing the malaria drug discovery pipeline: Screening and hit evaluation of the MMV Hit Generation Library 1 (HGL1) against asexual blood stage Plasmodium falciparum ,using a nano luciferase reporter read-out” (2022)
# Hit rate of the full screen: of about 150,000 compounds, about 540 (0.36%) showed an effect of 50% or more. The list shows a part of the results.
# Test system: Plasmodium falciparum
# Assay: Primary screen in NF54 nanoGlo assay, in single point, at 2uM, 72h; a lower Z score goes with more inhibition
# Type: functional, Erythrocyte
# Conditions: timepoint 72 hour
SMILES,% Inhibition [%],Z score
CCNC(=O)N1CCC(F)(C(=O)N2CCCC2)CC1,-6,0.81
CCc1cc(OCC(N)=O)ccc1Cl,-13,1.71
CC1=NN(Cc2ccccc2)C(=O)[C@H]1C(=O)Nc1ccccc1,-11,1.69
Cc1cc2cccc(C(=O)N3C[C@H](O)[C@@H](F)C3)c2o1,-6,1.17
Cc1cc(C)c(-c2cc(C(=O)NCCC(=O)N3CCOCC3)no2)c(C)c1,-2,0.35
COc1ccc(C2=NN(C(=O)CN(CCN3CCOCC3)C(=O)NC(C)C)[C@H](c3ccccc3)C2)cc1,-22,1.94
O=C(O)c1[nH]nc(C2CC2)c1Cc1ccccc1,-7,1.41
COc1ccc(N2CCN(C(=O)c3sc4nc(-c5ccccc5)cn4c3C)CC2)cc1,-15,1.98
Cc1noc(C)c1COC(=O)c1nccnc1-c1nc2ccccc2s1,-1,0.13
O=C(CCCNS(=O)(=O)c1ccc(Cl)cc1)NCc1ccco1,-12,1.59
COc1c(C)cc(S(=O)(=O)N2CCC[C@H]2c2ccon2)cc1C,-6,1.24
Cc1ccc(N(C)C(=O)c2cccc(=O)[nH]2)cc1C,-1,0.1
O=C(COc1ccccc1)N1CCC[C@H](S(=O)(=O)N2CCOCC2)C1,-10,1.64
COCCC1(CNC(=O)CC(F)(F)F)CCCC1,-12,1.59
CN(C)S(=O)(=O)Nc1ccc2nc(-c3ccccn3)oc2c1,3,-0.3
CCn1nc(-c2ccc(C)c(F)c2)nc1N(C)C,-8,1.49
O=C1CCCC[C@@H](C(=O)N2CCCCC2)N1,5,-0.89
CCC(=O)Nc1nc2ccc(NS(=O)(=O)Cc3ccccc3)cc2s1,31,-0.31
O=C(COc1ccc(N2C[C@@H](C(=O)NCc3ccc4c(c3)OCO4)CC2=O)cc1)Nc1ccc(Cl)cc1,-12,1.78
CC(C)Oc1cccc(C(=O)[C@H]2CCCN(c3nc(C(N)=O)cs3)C2)c1,-16,2.23
Cc1cccc(-c2noc(N3CCOCC3)c2CN(Cc2ccco2)C(=O)c2ccc(F)cc2)c1,-11,1.36
CC(C)Cn1c(=O)c2sccc2n(CC(=O)N(C)c2ccccc2)c1=O,2,-0.28
CC(C)Cc1cc(C(=O)NCC2(O)CCCCC2)on1,-14,1.39
Cc1cc(CNCc2c(C)noc2C)no1,-1,0.13
CC(C)(C)c1nnc2ccc(N[C@@H](CO)C3CCCC3)nn12,-10,1.89
Cc1nc(CC(C)C)c(NC(=O)NCCN2CCCOCC2)s1,-8,1.29
CO[C@H]1CCN(C(=O)C(=O)N2CCCCC2)C1,-11,2.06
Cn1cncc1C(=O)N[C@@](C)(CO)c1cccc(C(F)(F)F)c1,4,-0.48

SMILES,% Inhibition [%],Z score
Cc1ccc(-c2ncc(C#N)c(=O)n2CC(=O)N(C)c2ccccc2)cc1,4,-0.54
O=C(O)CN(C(=O)CNC(=O)c1ccc(C(F)(F)F)cc1)C1CCCCC1,-7,1.07
COc1cc(OC)c2c(c1)N(C(=O)[C@@H]1CCCS1(=O)=O)CCC2,6,-0.58
CN(CCNC(=O)c1nnc(C(=O)Nc2ccc(F)cc2)s1)Cc1ccccc1,-12,1.13
Cn1c(N2CCN(C(=O)c3ccccc3)CC2)cc(=O)n(C)c1=O,-5,0.72
Cc1ccc(CCCNCc2sncc2Br)cn1,-7,1.13
CC1(C)OC(=O)c2c1ccnc2NCCC(=O)N1CCCCCC1,-7,0.88
Fc1cccc(-c2ccc(CNc3nnc([C@@H]4CCCO4)o3)o2)c1F,-3,0.32
Nc1ccc(Cl)cc1OCC(F)F,-5,0.52
CC1(c2ccccc2)COC2(OC1)C(=O)N(CN1CCCCC1)c1ccccc12 (stereo not given),-4,0.48
c1cn(Cc2ccsc2)c(-c2ccc3nonc3c2)n1,-8,1.53
CC(=O)N1CCCN(C(=O)c2cc(C)n(Cc3ccco3)c2C)CC1,-9,0.8
NC(=NCC1(Cc2ccc(F)cc2)CC1)N1CCOCC1,-1,0.15
Cc1cnccc1CN1CC2(CCCCC2)CC1=O,-10,2
CC(C)(C)CC(=O)Nc1nccnc1C(=O)NC1CCN(C(=O)c2ccc(F)cc2)CC1,-17,1.68
CC(C)c1nc2cc(C(=O)NCCc3nc(-c4ccccc4)no3)ccc2o1,5,-0.66
CO[C@H]1COC[C@H]1Nc1nc(C(C)C)no1,-9,1.22
COc1ccc(-c2nccn2-c2ccc3nccnc3c2)cc1O,-6,0.8
COc1c2c(c(CNC(=O)CC(C)C)c3c1C(=O)N(C)CC3)OCO2,-4,0.49
COCc1nc(C)c(CNC(=O)c2cc(C)oc2C)s1,-29,3.08
C[C@H]1OCC(=O)N(Cc2ccccc2)[C@@H]1C(=O)NC1CCN(C2CCC2)C1=O (stereo not given in full),9,-1.51
CC(=O)N1CC(O)CC1c1nc(-c2cc(F)c(F)c(F)c2)no1 (stereo not given),-18,1.96
Cc1cc(N2CCn3nc(CNc4ncccn4)cc3C2)ccn1,-21,2.34
Cc1cnn(CC2CCN(C(=O)c3ccc4c(c3)ncn4CCO)CC2)c1,2,-0.31
COCCN(Cc1ccc(C)o1)[C@H]1CCOC1,-4,0.66
O=C(NC1CCN(Cc2ccc(F)c(F)c2)CC1)N[C@H]1CCOc2ccccc21,10,-1.32
O=C(CC1CCCCC1)NCC1CCN(c2cc(-c3ccccn3)n[nH]2)CC1,2,-0.16
